Source: PubChem BioAssay AID463173 (ICCB-Longwood Screening Facility, Harvard Medical School, 2010)
About 1,700 (3.3%) of roughly 52,000 compounds were called active. Cut-off read from the data, not from the text of the source: active = survival mostly below about 52% (no sharp cut-off); inactive = mostly above about 56%. The list shows a part of the results.

test system: Wild type; assay: S. aureus survival, RN4220 and DeltatarO strains – OD600, teichoic acid synthesis inhibitors, primary screen (AID 463173); settings: S. aureus RN4220 wild type/DeltatarO growth, OD600, 18 h, active compounds read low, screened at 18.75 µg/mL (by protocol)

SMILES | survival
Cc1nnc(NC(=O)CC2CC3CCC2C3)s1 (configuration not stated) | inactive: 98%
CCOc1ccc(NC(=O)CC2C(=O)N(c3cccc(C)c3)C(=O)N2CCC2=CCCCC2)cc1 (configuration not stated) | inactive: 131%
O=C(Nc1ccccc1)N(Cc1cccs1)c1ccc(Cl)cc1 | inactive: 108%
Cc1ccc(-n2c(=O)[nH]c3sc4c(c3c2=O)CCCC4)cc1 | inactive: 126%
O=S(=O)(c1ccc(Cl)cc1)c1nnn2c1nc(NCc1ccccc1)c1sccc12 | inactive: 85%
CC(=O)N(Cc1cccnc1)c1nc2cc(C)cc(C)c2s1 | inactive: 76%
CC(=O)Nc1ccccc1-c1nc2ccccc2n(C(C)C(=O)Nc2cccc(C)c2C)c1=O (configuration not stated) | inactive: 112%
CCc1ccc(C(=O)c2cn(CC(=O)Nc3cccc(C)c3C)c3nc(C)ccc3c2=O)cc1 | inactive: 140%
COc1cc(OC)c(NC(=O)CN(C)S(=O)(=O)c2ccc3c(c2)CCCC(=O)N3)cc1Cl | active: 1%
COc1ccc(Cl)cc1NC(=O)CN1C(=O)CSc2ccc(S(=O)(=O)N3CCCC3)cc21 | inactive: 105%
COc1ccccc1C(=O)N(Cc1ccco1)Cc1ccccc1F | inactive: 85%
Cc1cc(NC(=O)c2ccco2)cc(-c2nc3cc(Cl)ccc3o2)c1O | inactive: 101%
CCCCN(CC)C(=O)C1CCC(CNS(=O)(=O)c2cccc3nsnc23)CC1 (configuration not stated) | inactive: 97%
CCC(C(=O)N(C)Cc1ccccc1)n1nc(C)c2sc3ccccc3c2c1=O (configuration not stated) | inactive: 80%
Cc1cccc(NC(=O)CSc2nc(C)c(Cc3ccccc3)c(=O)[nH]2)c1C | inactive: 84%
Cc1ccc(CNC(=O)c2cc(Sc3ccc(F)cc3F)nc3ccccc23)cc1 | inactive: 94%
COc1ccc(CNC(=O)CCc2c(C)nn(-c3ccc(N4CCOCC4)nn3)c2C)cc1 | inactive: 124%
CN(C)C(=O)CSc1nnc(-c2ccncc2)n1C | inactive: 110%
COc1ccc(CCNC(=O)C2=C(C)C(=O)OC23CCCCC3)c(OC)c1 | inactive: 83%

SMILES | survival
CCOC(=O)c1ccc(CN(Cc2ccc(F)cc2)S(=O)(=O)c2cc(C(=O)Nc3ccccc3CC)ccc2F)cc1 | inactive: 131%
CC(=O)N1CCCC1c1nc2ccccc2n1Cc1cc(C)ccc1C (configuration not stated) | inactive: 110%
CCOC(=O)N1CCN(S(=O)(=O)N2CCCC(C(=O)NCc3ccccc3OC)C2)CC1 (configuration not stated) | inactive: 55%
Cc1ccc2ccc3cc(C(=O)Nc4ccc(C)c(F)c4)nc3c2[nH]1 | inactive: 78%
COc1ccc(NC(=O)C2CCCN(S(=O)(=O)c3ccc4[nH]c(=O)ccc4c3)C2)cc1OC (configuration not stated) | inactive: 91%
CCOc1cc(CNCCSc2nnnn2C)cc(Cl)c1OCc1ccc(Cl)cc1 | active: -2%
Cn1c(=O)n(C)c2cc(N3CCOCC3)c(NS(=O)(=O)c3ccc(Br)cc3)cc21 | inactive: 82%
Cc1cccc(N2CCN(C(=O)CCCn3ncn4c(cc5occc54)c3=O)CC2)c1C | inactive: 77%
COc1ccc(-c2cc(C(=O)NCCc3ccccc3)c3c(-c4ccccc4)[nH]nc3n2)cc1 | inactive: 68%
O=C(Cc1ccc(F)cc1)Nc1cccc(-c2nc3cccnc3s2)c1 | inactive: 88%
O=C(NCC(c1cccnc1)N1CCc2ccccc2C1)C(=O)Nc1cccc(Cl)c1 (configuration not stated) | inactive: 47%
CCC1SC(=NC(=O)c2cccs2)NC1=O (configuration not stated) | inactive: 110%
Cc1ccc(CCNS(=O)(=O)c2ccc3c(c2)CCN3C(=O)CCC(=O)O)cc1 | inactive: 133%
CCc1ccc(NC(=O)CCc2c(C)n(C)c3cc(-c4ccccc4C)nn3c2=O)cc1 | inactive: 47%
Cc1ccccc1C(=O)N1CCCCC1CCN1CCCCC1 (configuration not stated) | inactive: 86%
COc1ccc(N2CCN(C(=O)CCc3c(C)nc4cc(-c5cccc(F)c5)nn4c3C)CC2)cc1 | inactive: 71%
CC(=O)N1CCc2c(sc3c2c(=O)n(-c2ccccc2)c(=O)n3Cc2cccc(C(F)(F)F)c2)C1 | inactive: 137%
Cc1ccc(/C=C/c2nc3ccccc3n2S(=O)(=O)c2ccc(Br)cc2)cc1 | inactive: 70%
O=C(CSc1nnc(-c2ccco2)o1)NC(c1ccccc1)c1ccccc1 | inactive: 111%

SMILES | survival
O=C(NC1CCCCC1)N1CCN(c2ccccn2)CC1 | inactive: 112%
CCOC(=O)c1cnc2c(ccc3ccccc32)c1Nc1ccc(OC)cc1OC | active: 6%
COc1cccc(N=C2SC(C(=O)Nc3cccc(Cl)c3)CC(=O)N2C)c1 (configuration not stated) | inactive: 66%
COc1ccc(C(=O)c2c(N)c(-c3nc(-c4ccccc4)cs3)c3ccccn23)cc1 | inactive: 71%
CCc1nn(CC(=O)NCCCN2CCN(C)CC2)c(=O)c2cc3occc3n12 | inactive: 125%
CSc1ncc(C(=O)N2CCN(c3ccc(Cl)cc3)CC2)c(C)n1 | inactive: 124%
COc1ccc(C)cc1NC(=O)c1oc2ccc(S(=O)(=O)N3CCOCC3)cc2c1C | inactive: 97%
COC(=O)c1c(NC(=O)COc2ccc(Cl)cc2C)sc2c1CCCCC2 | inactive: 83%
COc1ccc(OC)c(NC(=O)CSC2=Nc3ccccc3C3=NC(CCC(=O)NC4CCCCC4)C(=O)N23)c1 (configuration not stated) | inactive: 60%
CSc1cccc(NC(=O)CC(c2ccc(F)cc2)N2Cc3ccccc3C2=O)c1 (configuration not stated) | inactive: 69%
Cc1nc2nc(C)c(CCC(=O)NCc3cccc(Cl)c3)c(C)n2n1 | inactive: 75%
O=C(Cn1c(=O)n(Cc2ccco2)c(=O)c2sc3ccccc3c21)Nc1ccccc1C(F)(F)F | inactive: 78%
CCOc1ccccc1NC(=O)c1ccc(C(=O)Nc2ccccc2OCC)cc1 | inactive: 68%
CC1CCN(S(=O)(=O)N(C)C)CC1 | inactive: 112%
COc1ccc(C2=C(C(C)=O)Sc3nnc(-c4ccccc4)n3N2C(C)=O)cc1 | inactive: 76%
CC(=O)NCCNC(=O)c1ccc2c(=O)n(CCc3ccccc3)c(=O)[nH]c2c1 | inactive: 92%
Cc1ccc(-n2nc(C)c3c(C)c(CCC(=O)NCc4ccccc4Cl)c(C)nc32)cc1 | inactive: 82%
Fc1ccc(Cc2cn3cc(-c4ccc(F)cc4)nc3s2)cc1 | inactive: 70%
COc1cc(NC(=O)c2cc3cc4cc(OC)ccc4nc3o2)cc(OC)c1 | inactive: 70%
